Laboratory results from publication PMC11277258, “Melanocortin-4 Receptor PLC Activation Is Modulated by an Interaction with the Monocarboxylate Transporter 8” (International Journal of Molecular Sciences, 2024).

Molecular target: T1, monocarboxylate transporter 8, C-terminally tagged with HaloTag (MCT8-HT) (human, UniProt P36021 1-539, HaloTag ligand 618 bound to the HaloTag)
T1 construct: monocarboxylate transporter 8 (MCT8, gene SLC16A2), human; The functional rows used MCT8 in hcpcDps without a stated tag; also called MCT8-HaloTag; HaloTag (HT)-tagged MCT8; source: HEK293, transfected, in live cells; not shown: HaloTag, C-terminal, kept
Assay: FRET or BRET; NanoBRET in live HEK293 cells; donor (NL-tagged) and acceptor (MCT8-HT) DNA co-transfected 1:8 (100 ng:800 ng); HT-Ligand 618; emission at 460 nm and 618 nm; DMSO background subtracted; mBU
Details: partners not purified

T1 sequence (P36021 whole entry): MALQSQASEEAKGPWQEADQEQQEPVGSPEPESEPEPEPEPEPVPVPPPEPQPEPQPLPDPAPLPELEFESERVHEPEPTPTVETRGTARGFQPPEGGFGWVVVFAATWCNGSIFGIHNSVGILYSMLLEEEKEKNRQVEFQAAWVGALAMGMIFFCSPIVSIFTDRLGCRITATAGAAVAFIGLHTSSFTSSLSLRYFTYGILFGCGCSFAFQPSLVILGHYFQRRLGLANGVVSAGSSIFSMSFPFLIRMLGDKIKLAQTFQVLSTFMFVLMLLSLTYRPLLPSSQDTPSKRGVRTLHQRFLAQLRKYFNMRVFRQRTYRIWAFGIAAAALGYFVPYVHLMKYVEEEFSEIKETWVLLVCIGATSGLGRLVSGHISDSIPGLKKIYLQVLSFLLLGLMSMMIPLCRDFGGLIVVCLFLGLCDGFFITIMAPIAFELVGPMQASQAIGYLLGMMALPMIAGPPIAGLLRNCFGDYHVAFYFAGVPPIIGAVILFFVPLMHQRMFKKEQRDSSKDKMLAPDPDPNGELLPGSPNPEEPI

fold BRET ratio over the negative control pair Rab6b-NL and MCT8-HT: 6 fold
B1: melanocortin-4 receptor, C-terminally tagged with NanoLuc (MC4R-NL) (receptor, human, UniProt P32245 1-332, looked up)
chain: MVNSTHRGMHTSLHLWNRSSYRLHSNASESLGKGYSDGGCYEQLFVSPEVFVTLGVISLLENILVIVAIAKNKNLHSPMYFFICSLAVADMLVSVSNGSETIVITLLNSTDTDAQSFTVNIDNVIDSVICSSLLASICSLLSIAVDRYFTIFYALQYHNIMTVKRVGIIISCIWAACTVSGILFIIYSDSSAVIICLITMFFTMLALMASLYVHMFLMARLHIKRIAVLPGTGAIRQGANMKGAITLTILIGVFVVCWAPFFLHLIFYISCPQNPYCVCFMSHFNLYLILIMCNSIIDPLIYALRSQELRKTFKEIICCYPLGGLCDLSSRY
notes: melanocortin-4 receptor (MC4R), human; Cloned into a Promega NanoLuc fusion vector (pFC32K or pFC14A); The functional rows used another construct: N-terminally HA-tagged MC4R in hcpcDps; also called NanoLuc (NL)-tagged MC4R; source: HEK293, transfected, in live cells; not shown: NanoLuc, C-terminal, kept
